{
  "source": "the antibiotic and cytotoxicity screens of Wong et al. (2023)",
  "note": "The other results are listed elsewhere or left out.",
  "data": [
    {"tested_on": "HSkMC (human skeletal muscle cells)", "experiment": "cytotoxicity call (relative viability < 0.9)", "conditions": "10 µM", "values": [
      {"smiles": "COc1ccc(NC(=O)N(C)C[C@@H]2Oc3c(NC(=O)Nc4ccc(C(F)(F)F)cc4)cccc3C(=O)N([C@H](C)CO)C[C@H]2C)cc1", "cytotoxicity call": "inactive"},
      {"smiles": "CC(=O)N[C@H]1CSSC[C@@H](C(N)=O)NC(=O)[C@H](C(C)C)NC(=O)[C@H](C)NC(=O)[C@H](Cc2cnc[nH]2)NC1=O", "cytotoxicity call": "inactive"},
      {"smiles": "C[C@H](CO)N1C[C@H](C)[C@H](CN(C)Cc2ccc(C(F)(F)F)cc2)OCCCC[C@H](C)Oc2ccc(NC(=O)C3CCCCC3)cc2C1=O", "cytotoxicity call": "inactive"},
      {"smiles": "CC(C)NC(=O)N(C)C[C@H]1Oc2ccc(NC(=O)NC3CCCCC3)cc2C(=O)N([C@H](C)CO)C[C@H]1C", "cytotoxicity call": "inactive"},
      {"smiles": "COc1ccc(NC(=O)N2C[C@@H](O)COC[C@@H]3O[C@@H](CC(=O)NC4Cc5ccccc5C4)CC[C@H]32)cc1", "cytotoxicity call": "inactive"},
      {"smiles": "C[C@@H]1CCCCO[C@H](CN(C)C(=O)c2ccccc2)[C@H](C)CN([C@@H](C)CO)C(=O)c2cc(NC(=O)Nc3ccccc3)ccc2O1", "cytotoxicity call": "inactive"},
      {"smiles": "COc1ccc(S(=O)(=O)Nc2ccc3c(c2)C(=O)N([C@@H](C)CO)C[C@@H](C)[C@H](CN(C)C(=O)NC(C)C)O3)cc1", "cytotoxicity call": "inactive"},
      {"smiles": "C[C@@H]1CN([C@H](C)CO)C(=O)Cc2cc(NC(=O)CCCCCC(=O)Nc3ccccc3N)ccc2O[C@H]1CN(C)CC1CCCCC1", "cytotoxicity call": "inactive"},
      {"smiles": "Cc1ccc2ncc(-c3ccc4cc(C)ccc4n3)cc2c1", "cytotoxicity call": "inactive"},
      {"smiles": "CN(C)CC(=O)N[C@H]1C=C[C@H](CC(=O)O)O[C@H]1CO", "cytotoxicity call": "inactive"},
      {"smiles": "C[C@H]1CCCCO[C@H](CN(C)Cc2ccc3c(c2)OCO3)[C@@H](C)CN([C@@H](C)CO)C(=O)c2cc(NC(=O)Cc3ccccc3)ccc2O1", "cytotoxicity call": "inactive"},
      {"smiles": "C[C@@H]1CN([C@@H](C)CO)C(=O)c2cccc(NS(=O)(=O)c3cn(C)cn3)c2O[C@@H]1CN(C)S(=O)(=O)c1ccc(F)cc1", "cytotoxicity call": "inactive"},
      {"smiles": "CO[C@@H]1CN(C)C(=O)c2ccc(NC(=O)C3CC3)cc2OC[C@H](C)N(C(=O)Cc2ccccn2)C[C@H]1C", "cytotoxicity call": "inactive"},
      {"smiles": "CCCNC(=O)C[C@@H]1CC[C@@H]2[C@H](COC[C@H](O)CN2S(=O)(=O)c2ccc(Oc3ccccc3)cc2)O1", "cytotoxicity call": "inactive"},
      {"smiles": "C[C@H]1CN([C@@H](C)CO)C(=O)c2cc(NC(=O)Nc3ccccc3)ccc2O[C@@H]1CN(C)C(=O)Nc1cccc2ccccc12", "cytotoxicity call": "inactive"},
      {"smiles": "C[C@@H]1CN([C@H](C)CO)C(=O)c2cccc(NS(=O)(=O)c3ccc(Cl)cc3)c2O[C@H]1CN(C)Cc1ccc(C(F)(F)F)cc1", "cytotoxicity call": "inactive"},
      {"smiles": "CC(=O)N1CCc2nc(N)sc2C1", "cytotoxicity call": "inactive"},
      {"smiles": "COc1ccc(CN(C)C[C@H]2OCCCC[C@H](C)Oc3ccc(NC(=O)Nc4ccc(C(F)(F)F)cc4)cc3C(=O)N([C@@H](C)CO)C[C@H]2C)cc1", "cytotoxicity call": "active"},
      {"smiles": "C[C@H]1CN([C@@H](C)CO)C(=O)c2cc(NS(=O)(=O)c3ccc(F)cc3)ccc2O[C@H]1CN(C)S(=O)(=O)c1cccs1", "cytotoxicity call": "inactive"},
      {"smiles": "Nc1nc(C(F)(F)F)ncc1C(=O)O", "cytotoxicity call": "inactive"},
      {"smiles": "C[C@H]1O[C@@H](O[C@H]2[C@@H](O)[C@@H](O)[C@@H](O[C@H]3CC[C@]4(C)[C@H]5CC=C6[C@H]7CC(C)(C)[C@H]8C[C@]7(C(=O)O8)[C@@H](O)C[C@]6(C)[C@@]5(C)CC[C@H]4C3(C)C)O[C@@H]2CO)[C@@H](O)[C@@H](O[C@H]2OC[C@@H](O)[C@@H](O)[C@@H]2O)[C@@H]1O", "cytotoxicity call": "inactive"},
      {"smiles": "C[C@@H]1CN([C@H](C)CO)C(=O)c2cc(NC(=O)C3CC3)ccc2O[C@H]1CN(C)Cc1ccc2c(c1)OCO2", "cytotoxicity call": "inactive"},
      {"smiles": "C/C=C/c1cnc2c(c1)C(=O)N([C@@H](C)CO)C[C@@H](C)[C@@H](CN(C)S(=O)(=O)c1ccc(OC)cc1)O2", "cytotoxicity call": "inactive"},
      {"smiles": "C[C@@H]1CCCCO[C@@H](CN(C)Cc2ccc3c(c2)OCO3)[C@H](C)CN([C@H](C)CO)C(=O)c2cc(NC(=O)Nc3ccc4c(c3)OCO4)ccc2O1", "cytotoxicity call": "inactive"},
      {"smiles": "C[C@@H]1CN([C@@H](C)CO)S(=O)(=O)c2ccc(-c3ccncc3)cc2O[C@H]1CN(C)Cc1ccc(Oc2ccccc2)cc1", "cytotoxicity call": "inactive"},
      {"smiles": "C[C@H]1CN([C@@H](C)CO)C(=O)Cc2cc(N(C)C)ccc2O[C@H]1CN(C)C(=O)Nc1ccc2c(c1)OCO2", "cytotoxicity call": "inactive"},
      {"smiles": "C[C@H]1CN([C@@H](C)CO)C(=O)Cc2cc(NC(=O)C3CC3)ccc2O[C@@H]1CN(C)Cc1ccc(C(=O)O)cc1", "cytotoxicity call": "inactive"},
      {"smiles": "C[C@@H]1CN([C@H](C)CO)C(=O)c2cc(NC(=O)C3CCCCC3)ccc2O[C@@H](C)CCCCO[C@@H]1CN(C)S(=O)(=O)c1ccccc1", "cytotoxicity call": "inactive"}
    ]}
  ]
}
